Assay results as given in the supplement of paper PMC12067093, “Discovery and optimisation of a covalent ligand for TRIM25 and its application to targeted protein ubiquitination” (Chemical Science, 2025).
Of roughly 21,000 targets only a part is listed; those with the largest changes were picked by preference.

Compound: Cc1cc(ccc1-c1ccccc1)C(=O)N1CCCN(CC1)C(=O)CCl [compound 10]
Test: probe-labelled cysteine peptide fold change vs DMSO (competition) (log2 fold change); higher = less target engagement (more negative = stronger competition)
Conditions: THP-1, incubation time: 4 h
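Note: competitive profiling in live THP-1 cells: cysteine peptides tagged with an iodoacetamide desthiobiotin (IA-DTB) probe, intensity after compound treatment relative to DMSO-treated cells.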

Chain of UniProt Q8NC51 (Q8NC51 whole entry, looked up): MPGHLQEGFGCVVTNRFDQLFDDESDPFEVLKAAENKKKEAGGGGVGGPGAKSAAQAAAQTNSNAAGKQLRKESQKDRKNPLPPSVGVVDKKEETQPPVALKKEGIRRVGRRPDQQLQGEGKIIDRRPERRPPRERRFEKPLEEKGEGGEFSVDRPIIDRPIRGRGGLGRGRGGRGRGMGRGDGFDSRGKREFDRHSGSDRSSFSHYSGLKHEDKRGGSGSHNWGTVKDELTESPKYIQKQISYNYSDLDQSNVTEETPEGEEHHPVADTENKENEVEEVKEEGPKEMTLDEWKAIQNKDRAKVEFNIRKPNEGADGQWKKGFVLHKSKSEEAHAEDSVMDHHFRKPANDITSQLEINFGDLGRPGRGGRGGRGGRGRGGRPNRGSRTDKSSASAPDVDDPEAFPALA
Chain of UniProt Q9UPS6 (Q9UPS6 whole entry, looked up): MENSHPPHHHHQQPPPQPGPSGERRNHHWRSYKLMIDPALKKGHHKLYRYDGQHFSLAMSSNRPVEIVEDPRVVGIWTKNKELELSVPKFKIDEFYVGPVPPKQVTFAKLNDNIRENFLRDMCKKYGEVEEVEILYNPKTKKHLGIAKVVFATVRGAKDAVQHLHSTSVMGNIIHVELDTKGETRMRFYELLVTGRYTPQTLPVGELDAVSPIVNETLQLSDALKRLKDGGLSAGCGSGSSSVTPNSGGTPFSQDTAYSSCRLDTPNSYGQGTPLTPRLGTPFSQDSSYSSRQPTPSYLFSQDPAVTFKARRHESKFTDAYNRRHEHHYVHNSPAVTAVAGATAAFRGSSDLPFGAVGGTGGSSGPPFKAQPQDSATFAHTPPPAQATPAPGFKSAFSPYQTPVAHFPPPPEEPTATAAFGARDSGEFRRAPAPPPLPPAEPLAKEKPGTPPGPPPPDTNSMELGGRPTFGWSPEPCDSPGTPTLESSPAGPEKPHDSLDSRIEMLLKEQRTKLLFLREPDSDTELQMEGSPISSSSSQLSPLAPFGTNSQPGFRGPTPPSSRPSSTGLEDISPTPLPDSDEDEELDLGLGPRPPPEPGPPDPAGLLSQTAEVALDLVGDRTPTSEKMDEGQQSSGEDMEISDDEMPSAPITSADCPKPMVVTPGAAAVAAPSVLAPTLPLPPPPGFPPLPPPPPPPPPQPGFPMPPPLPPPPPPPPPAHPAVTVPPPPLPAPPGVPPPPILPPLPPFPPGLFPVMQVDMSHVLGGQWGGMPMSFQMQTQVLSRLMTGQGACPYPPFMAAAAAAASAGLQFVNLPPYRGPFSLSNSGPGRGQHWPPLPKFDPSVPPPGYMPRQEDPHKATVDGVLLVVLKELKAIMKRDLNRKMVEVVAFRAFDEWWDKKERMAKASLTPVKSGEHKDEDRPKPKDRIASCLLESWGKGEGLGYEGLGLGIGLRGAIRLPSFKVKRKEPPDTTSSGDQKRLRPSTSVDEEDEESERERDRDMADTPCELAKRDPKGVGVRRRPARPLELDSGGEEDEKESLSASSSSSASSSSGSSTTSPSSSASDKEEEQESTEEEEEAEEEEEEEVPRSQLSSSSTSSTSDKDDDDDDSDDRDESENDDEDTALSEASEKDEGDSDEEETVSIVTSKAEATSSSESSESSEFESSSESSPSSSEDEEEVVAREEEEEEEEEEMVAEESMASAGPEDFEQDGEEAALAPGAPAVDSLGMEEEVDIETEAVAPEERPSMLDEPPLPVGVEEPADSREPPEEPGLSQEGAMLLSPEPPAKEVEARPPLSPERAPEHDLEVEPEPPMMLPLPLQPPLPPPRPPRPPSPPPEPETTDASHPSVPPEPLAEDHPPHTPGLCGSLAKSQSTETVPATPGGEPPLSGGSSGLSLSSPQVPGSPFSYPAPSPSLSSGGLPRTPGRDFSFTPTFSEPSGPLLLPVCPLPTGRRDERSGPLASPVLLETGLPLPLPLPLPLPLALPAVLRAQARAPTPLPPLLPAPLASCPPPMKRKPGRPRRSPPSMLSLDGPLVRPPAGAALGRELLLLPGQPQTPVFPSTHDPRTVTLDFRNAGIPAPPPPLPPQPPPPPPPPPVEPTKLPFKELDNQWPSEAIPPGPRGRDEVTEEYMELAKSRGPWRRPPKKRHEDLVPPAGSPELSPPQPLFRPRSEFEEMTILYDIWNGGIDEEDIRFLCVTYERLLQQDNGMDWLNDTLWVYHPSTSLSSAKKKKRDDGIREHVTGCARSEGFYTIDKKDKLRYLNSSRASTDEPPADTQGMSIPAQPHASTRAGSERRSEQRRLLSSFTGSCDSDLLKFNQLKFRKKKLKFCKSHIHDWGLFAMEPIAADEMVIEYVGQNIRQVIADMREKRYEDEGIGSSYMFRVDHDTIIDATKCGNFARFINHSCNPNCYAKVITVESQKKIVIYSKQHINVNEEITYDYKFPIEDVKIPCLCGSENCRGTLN
Chain of UniProt O94979 (O94979 whole entry, looked up): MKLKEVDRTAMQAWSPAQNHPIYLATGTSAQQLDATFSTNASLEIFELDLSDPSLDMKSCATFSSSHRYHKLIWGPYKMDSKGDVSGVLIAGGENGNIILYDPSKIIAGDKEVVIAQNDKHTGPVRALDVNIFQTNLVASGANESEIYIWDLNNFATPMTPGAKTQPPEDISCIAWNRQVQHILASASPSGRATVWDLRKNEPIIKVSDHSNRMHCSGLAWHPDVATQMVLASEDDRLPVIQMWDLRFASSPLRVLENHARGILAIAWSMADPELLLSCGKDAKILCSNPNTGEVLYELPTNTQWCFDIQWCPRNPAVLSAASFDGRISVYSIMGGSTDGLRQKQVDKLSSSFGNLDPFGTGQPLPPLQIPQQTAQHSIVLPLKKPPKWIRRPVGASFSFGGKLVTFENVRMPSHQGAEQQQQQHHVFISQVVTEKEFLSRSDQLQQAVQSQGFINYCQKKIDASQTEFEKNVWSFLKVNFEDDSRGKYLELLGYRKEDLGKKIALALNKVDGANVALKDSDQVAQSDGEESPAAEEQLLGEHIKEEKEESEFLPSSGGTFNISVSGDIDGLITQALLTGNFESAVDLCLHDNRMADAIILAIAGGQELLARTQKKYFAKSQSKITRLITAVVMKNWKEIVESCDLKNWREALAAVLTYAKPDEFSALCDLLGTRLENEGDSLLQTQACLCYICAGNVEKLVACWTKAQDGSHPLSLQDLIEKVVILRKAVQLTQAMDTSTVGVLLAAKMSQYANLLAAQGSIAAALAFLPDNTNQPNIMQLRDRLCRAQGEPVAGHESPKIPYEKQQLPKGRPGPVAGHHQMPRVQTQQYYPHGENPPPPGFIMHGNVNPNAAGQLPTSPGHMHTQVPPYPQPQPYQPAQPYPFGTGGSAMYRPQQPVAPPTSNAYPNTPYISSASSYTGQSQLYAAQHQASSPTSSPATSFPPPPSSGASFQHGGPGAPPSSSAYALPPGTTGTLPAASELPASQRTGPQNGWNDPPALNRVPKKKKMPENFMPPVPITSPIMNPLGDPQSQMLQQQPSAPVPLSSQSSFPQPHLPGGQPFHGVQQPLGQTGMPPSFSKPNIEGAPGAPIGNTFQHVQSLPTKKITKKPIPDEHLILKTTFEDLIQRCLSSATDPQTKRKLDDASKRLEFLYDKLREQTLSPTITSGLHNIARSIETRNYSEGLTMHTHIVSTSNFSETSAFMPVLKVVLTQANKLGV
Chain of UniProt O75533 (O75533 whole entry, looked up): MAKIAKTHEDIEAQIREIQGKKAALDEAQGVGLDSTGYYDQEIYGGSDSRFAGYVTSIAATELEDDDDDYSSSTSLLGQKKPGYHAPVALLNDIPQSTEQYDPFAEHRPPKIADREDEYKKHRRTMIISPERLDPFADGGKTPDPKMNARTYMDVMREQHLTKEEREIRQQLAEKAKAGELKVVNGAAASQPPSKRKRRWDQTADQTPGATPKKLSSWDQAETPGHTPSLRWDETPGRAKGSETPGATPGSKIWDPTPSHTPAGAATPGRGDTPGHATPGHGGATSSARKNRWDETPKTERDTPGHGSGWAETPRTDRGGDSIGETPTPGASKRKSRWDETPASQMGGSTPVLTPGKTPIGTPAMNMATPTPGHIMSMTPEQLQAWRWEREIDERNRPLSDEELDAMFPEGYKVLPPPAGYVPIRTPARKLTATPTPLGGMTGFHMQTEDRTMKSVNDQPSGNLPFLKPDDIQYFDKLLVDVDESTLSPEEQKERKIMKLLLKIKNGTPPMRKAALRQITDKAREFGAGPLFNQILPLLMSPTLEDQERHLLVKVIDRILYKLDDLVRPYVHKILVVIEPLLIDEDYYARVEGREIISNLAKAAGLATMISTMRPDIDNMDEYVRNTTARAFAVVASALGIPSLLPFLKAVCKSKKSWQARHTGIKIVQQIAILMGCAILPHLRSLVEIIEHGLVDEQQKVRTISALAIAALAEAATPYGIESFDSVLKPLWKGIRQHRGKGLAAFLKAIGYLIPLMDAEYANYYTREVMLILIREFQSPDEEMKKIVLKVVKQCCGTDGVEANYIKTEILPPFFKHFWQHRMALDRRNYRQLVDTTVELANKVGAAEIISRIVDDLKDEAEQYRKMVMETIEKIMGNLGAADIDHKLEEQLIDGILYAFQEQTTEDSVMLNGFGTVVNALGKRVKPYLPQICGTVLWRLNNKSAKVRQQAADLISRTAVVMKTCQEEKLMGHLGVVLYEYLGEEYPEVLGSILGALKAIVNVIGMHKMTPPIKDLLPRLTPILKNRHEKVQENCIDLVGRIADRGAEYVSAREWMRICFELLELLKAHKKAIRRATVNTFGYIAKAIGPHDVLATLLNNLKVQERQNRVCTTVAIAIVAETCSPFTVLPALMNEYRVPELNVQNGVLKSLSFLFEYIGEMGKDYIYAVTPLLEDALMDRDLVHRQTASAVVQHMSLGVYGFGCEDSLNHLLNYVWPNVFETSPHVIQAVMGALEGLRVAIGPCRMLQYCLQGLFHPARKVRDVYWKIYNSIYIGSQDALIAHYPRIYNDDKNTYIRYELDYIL

Target	probe-labelled cysteine peptide fold change (10 µM)	probe-labelled cysteine peptide fold change (50 µM)
SEC24D_O94855_819_EILVNQTAHMLACYR (UniProt O94855)	-0.0866	0.103
SF3B1_O75533_933_VKPYLPQICGTVLWR (UniProt O75533)	-0.0747	-0.0138
SMCHD1_A6NHR9_1823_DLLTFPDNVEHCETVFGMLLGDTIILDNLDAANHYR (UniProt A6NHR9)	0.0852	0.316
SH3RF1_Q7Z6J0_93_QRPWKPGPGGGSGTNCTNALR (UniProt Q7Z6J0)	-0.281	-0.663
SLC30A1_Q9Y6M5_390_CEDPTSYMEVAK (UniProt Q9Y6M5)	-0.0348	-0.326
SETD1B_Q9UPS6_1448_DFSFTPTFSEPSGPLLLPVCPLPTGR (UniProt Q9UPS6)	-0.238	-0.274
RPS27A_P62979_121+126_ECPSDECGAGVFMASHFDR (UniProt P62979)	-0.12	-0.703
SCP2_P22307_115_QLIQGGVAECVLALGFEK (UniProt P22307)	-1.61	-1.23
RNF31_Q96EP0_998_ETPAGYAGLCQAHYK (UniProt Q96EP0)	0.00152	-0.264
SMC4_Q9NTJ3_110_FSCIIGPNGSGK (UniProt Q9NTJ3)	0.12	0.0565
SHMT2_P34897_241_EVCDEVK (UniProt P34897)	-0.00986	0.0271
SDHB_P21912_243_CHTIMNCTR (UniProt P21912)	-0.165	-0.17
SEC23A_Q15436_180_MVQVHELGCEGISK (UniProt Q15436)	-0.0283	-0.0698
SDHA_P31040_438+443_HVNGQDQIVPGLYACGEAACASVHGANR (UniProt P31040)	-0.14	-0.307
SAE1_Q9UBE0_134_KPESFFTQFDAVCLTCCSR (UniProt Q9UBE0)		0.105
RPL10A_P62906_66+74_FSVCVLGDQQHCDEAK (UniProt P62906)	0.411	-0.171
SEC24C_P53992_635_AAECAGK (UniProt P53992)	-0.0235	-0.121
RPUSD2_Q8IZ73_502_AVETDVMNQETDPLCAECR (UniProt Q8IZ73)	-0.00549	0.19

Target	probe-labelled cysteine peptide fold change (10 µM)	probe-labelled cysteine peptide fold change (50 µM)
SLC25A20_O43772_283_AFPANAACFLGFEVAMK (UniProt O43772)	-0.17	-0.133
SEC24B_O95487_1175_GCDNNFIEDVLGYTNFASIPQK (UniProt O95487)	0.0382	0.33
RPTOR_Q8N122_617_CAAVFALGTFVGNSAER (UniProt Q8N122)	0.0641	0.22
RTN4_Q9NQC3_1101_YSNSALGHVNCTIK (UniProt Q9NQC3)	-0.955	-2.07
SIRT2_Q8IXJ6_164_CYTQNIDTLER (UniProt Q8IXJ6)	0.115	-0.0404
SHMT1_P34896_389_NTCPGDR (UniProt P34896)	0.419	0.998
SMARCC1_Q92922_164_TLVQNNCLTRPNIYLIPDIDLK (UniProt Q92922)	0.0356	0.0091
RNH1_P13489_12_SLDIQSLDIQCEELSDAR (UniProt P13489)	0.429	1.24
SEPHS1_P49903_306_ACGNMFGLMHGTCPETSGGLLICLPR (UniProt P49903)	-0.122	0.00466
RNF213_Q63HN8_876_FYELPALSAEIVCR (UniProt Q63HN8)	-0.175	0.272
SMAD9_O15198_93_GLPHVIYCR<|>SMAD3_Q15796_89_GLPHVIYCR<|>SMAD2_Q99717_129_GLPHVIYCR (UniProt Q99717+Q15796+O15198)	0.0352	-0.128
SEC31A_O94979_704_LVACWTK (UniProt O94979)	-0.0777	-0.00286
RUNDC1_Q96C34_311_TGNGCSR (UniProt Q96C34)	0.28	0.474
SERBP1_Q8NC51_11_PGHLQEGFGCVVTNR (UniProt Q8NC51)	0.124	-0.0591
RNF169_Q8NCN4_293_SQSCSDTAQER (UniProt Q8NCN4)	-0.104	-0.518
SMC2_O95347_800_KLDCAK (UniProt O95347)	-0.0608	-0.933
SIRT1_Q96EB6_398_CPADEPLAIMKPEIVFFGENLPEQFHR (UniProt Q96EB6)	0.0626	-0.351
SLC25A24_Q6NUK1_330_TGQYSGIYDCAK (UniProt Q6NUK1)	0.0687	-0.0859
